Results published in PubChem BioAssay AID488969 (Vanderbilt High Throughput Screening Facility, 2010).
Whole data set: some 110,000 compounds, median “z-score” near -0.1, cut for the highest 2% near 2. The list shows a part of the results.

These compounds were tested against Metabotropic glutamate receptor 8 (Rattus norvegicus) (UniProt P70579) (assay: mGluR8 Gi/Go-coupled signaling modulation – cell-based, rat, thallium flux, HTS, primary screen (AID 488969)). Conditions: HEK293 rat mGluR8, GIRK (G protein-gated inwardly rectifying potassium channel) thallium flux, FluoZin2; at 10 µM; stronger effect = higher value; submaximal glutamate (EC20) added with thallium.
Sequence of UniProt P70579 (P70579 whole entry, looked up): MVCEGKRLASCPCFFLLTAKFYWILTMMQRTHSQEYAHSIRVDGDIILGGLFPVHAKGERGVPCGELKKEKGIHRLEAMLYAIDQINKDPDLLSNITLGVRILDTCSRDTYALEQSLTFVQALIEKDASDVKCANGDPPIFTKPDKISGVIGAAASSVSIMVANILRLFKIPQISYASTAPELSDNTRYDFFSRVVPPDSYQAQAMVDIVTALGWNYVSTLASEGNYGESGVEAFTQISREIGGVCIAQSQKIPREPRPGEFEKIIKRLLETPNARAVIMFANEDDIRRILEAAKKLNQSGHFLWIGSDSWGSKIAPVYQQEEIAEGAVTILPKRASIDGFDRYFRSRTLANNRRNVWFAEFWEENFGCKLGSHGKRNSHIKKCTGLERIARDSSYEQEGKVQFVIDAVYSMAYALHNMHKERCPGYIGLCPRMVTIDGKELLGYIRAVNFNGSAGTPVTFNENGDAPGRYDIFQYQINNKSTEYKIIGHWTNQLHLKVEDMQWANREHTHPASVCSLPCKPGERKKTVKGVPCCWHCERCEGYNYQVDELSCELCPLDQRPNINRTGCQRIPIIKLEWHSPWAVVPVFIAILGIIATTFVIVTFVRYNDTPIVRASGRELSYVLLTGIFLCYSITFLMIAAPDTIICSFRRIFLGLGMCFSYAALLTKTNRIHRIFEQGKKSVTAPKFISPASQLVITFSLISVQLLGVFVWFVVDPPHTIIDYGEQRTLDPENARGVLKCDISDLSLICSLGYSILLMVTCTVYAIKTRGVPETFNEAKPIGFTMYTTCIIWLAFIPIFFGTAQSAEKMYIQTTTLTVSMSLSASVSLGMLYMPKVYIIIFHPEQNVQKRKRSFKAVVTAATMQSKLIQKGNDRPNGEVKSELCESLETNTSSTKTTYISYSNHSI

Row | SMILES | z-score
1 | COc1ccc(N2CCN(CC(O)COc3ccc([N+](=O)[O-])cc3)CC2)cc1 (configuration not stated) | -0.183
2 | FC(F)(F)c1cc(-c2ccco2)nc(-n2nc(C(F)(F)F)cc2C2CC2)n1 | 0.694
3 | CC(=O)NC1=NN(C(C)=O)C(c2cccs2)S1 (configuration not stated) | 0.0978
4 | COC(=O)c1c(NC(=O)C(C)(C)C)sc2c1C(C(=O)OC)CC2 (configuration not stated) | -0.141
5 | O=C(c1ccc2c(c1)OCO2)N1CCNc2ccccc2C1 | -0.223
6 | CN(C)C(=O)COC(=O)c1ccccc1Nc1ccc(SC(F)F)cc1 | -0.185
7 | CCCn1c(/N=C/c2ccc3c(c2)OCO3)nc2ccccc21 | -0.708
8 | CNC(=O)/C(C#N)=C/c1c(N(Cc2ccccc2)Cc2ccccc2)nc2c(C)cccn2c1=O | -0.35
9 | Cc1cccc(N=C2NC(=O)/C(=C/C=C/c3ccco3)S2)c1 | 0.7
10 | CN(C(=O)CSCC(=O)O)C1CCCCC1 | 0.559
11 | COc1cc(/C=N/NC(=O)CCn2c3ccccc3c3ccccc32)cc(OC)c1OC | -0.239
12 | Cc1cccc(NC(=O)c2ccccc2Br)n1 | 0.0402
13 | CCOC(=O)c1cnc(SCC)[nH]c1=O | 1.28
14 | CCN(CC)C(=O)CSc1nc2cc(OC)c(OC)cc2c(=O)n1Cc1ccc(Cl)cc1 | -0.315
15 | CCOC(=O)N1CCC(NC(=O)C2CCCN2C(=O)OCc2ccccc2)CC1 (configuration not stated) | 0.0559
16 | Cc1cc(Cl)c2ccccc2n1 | -0.123
17 | Cc1ccc(N2CCN(S(=O)(=O)c3ccc(F)c(C)c3)CC2)c(C)c1 | -0.0676
18 | CCCCNC(=O)c1ccccc1NC(=O)CCSc1ccccc1 | -0.316
19 | COc1cc(NC(=S)N2CCN(C(c3ccccc3)c3ccccc3)CC2)cc(OC)c1 | -0.0342
20 | Cn1c(SCC(=O)N2CCN(c3ccccc3)CC2)nnc1-c1ccccc1 | 0.236
21 | O=C1C2ON(c3ccccc3)C(c3ccncc3)C2C(=O)N1c1ccc(N2CCOCC2)cc1 (configuration not stated) | -0.522
22 | C/C(=N\Nc1ccccn1)c1ccc(S(=O)(=O)NCc2ccco2)cc1 | -0.376
23 | CN(C)/C=C(\C#N)c1nc2ccccc2[nH]1 | 0.00195
24 | CCCCn1nnnc1NCc1cccs1 | -1.89

Row | SMILES | z-score
25 | COc1cc(C2N=C(c3ccccc3)NO2)cc(Br)c1O (configuration not stated) | -0.46
26 | Cc1ccc(/C=N/Nc2ncc(Cl)cc2Cl)s1 | 0.576
27 | Cc1nn(-c2ccc(F)cc2)c(C)c1NS(=O)(=O)c1ccc(Cl)cc1 | -0.396
28 | Cc1ccc(C2CC(=O)c3cnc(N4CCc5ccccc5C4)nc3C2)cc1 (configuration not stated) | -0.128
29 | CCOc1ccccc1NC(=O)CSc1nnc(CNC(=O)COc2ccc(Cl)cc2)o1 | 0.0919
30 | COC(=O)NNC(=O)C1CCC(C(=O)NNC(=O)OC)CC1 (configuration not stated) | -0.429
31 | O=C(c1ccco1)N1CCN(CC(=O)N(C2CCCCC2)C2CCS(=O)(=O)C2)CC1 (configuration not stated) | 0.0392
32 | COc1ccccc1-c1nnc(SCC(=O)Nc2ccccc2)o1 | -0.359
33 | CCOC(=O)Cn1c(=NC(=O)c2ccc([N+](=O)[O-])s2)sc2ccccc21 | -0.342
34 | COc1ccc(CC(=O)Nc2nc3ccc(F)cc3s2)cc1S(=O)(=O)N1CCOCC1 | -1.36
35 | COc1cc(OC)cc(C(=O)N2CCN(Cc3ccccc3C(F)(F)F)CC2)c1 | -0.0879
36 | CC(/C=N/NC(=O)Cn1cnc2ccccc21)=C\c1ccccc1 | -0.0924
37 | CN(CC(=O)N1CCCCCC1)S(=O)(=O)c1ccc(Br)s1 | -0.194
38 | CCn1c(=O)cc(SCC(=O)N2CCN(C)CC2)c2ccccc21 | -0.148
39 | COc1ccccc1OCC(=O)NCCSCc1ccccc1Cl | 0.342
40 | Cc1nnc(SCc2cc(=O)n3[nH]cnc3n2)s1 | 0.132
41 | CCOCCCNC(=O)CCNS(=O)(=O)c1ccc(C)cc1 | -0.152
42 | Cc1ccc(-n2c(C)cc(C)c(C#N)c2=O)cc1 | -0.259
43 | CCOC(=O)c1cc2occc2n1Cc1ccc(F)cc1 | -0.169
44 | COc1ccc(NC(=O)CSc2nc3c(c(=O)n2-c2ccc(F)cc2)SCC3)cc1 | -0.848
45 | O=C(COc1ccc(Cl)cc1Cl)OCC(=O)N1CCCc2ccccc21 | -0.0629
46 | COc1ccc(Cc2nnc(NC(=O)Cn3cnc4c3c(=O)n(C)c(=O)n4C)s2)cc1OC | 0.927
47 | COc1ccc(/C=N/NC(=O)c2nc(-c3ccccc3)cc(-c3ccccc3)n2)cc1O | -0.36
48 | COc1ccc(S(=O)(=O)N2CCN(c3ccc4nnc(-c5ccc(F)cc5)n4n3)CC2)cc1 | -0.448

Row | SMILES | z-score
49 | Cc1cc(=O)n(CC(C)C)c(O)c1C#N | 0.105
50 | Cc1ccccc1Cn1cc(NC(=O)c2noc3c2CC(C(C)(C)C)CC3)cn1 (configuration not stated) | -0.63
51 | COC(=O)c1ccc(COc2ccc(C3C4=C(CCCC4=O)Nc4onc(C)c43)cc2)cc1 (configuration not stated) | 0.0911
52 | CNC(=S)N(Cc1cccs1)Cc1cc2cc(OC)ccc2[nH]c1=O | -0.0724
53 | Cc1ccc(C)c(NC(=S)N2CCN(c3cccc(C(F)(F)F)c3)CC2)c1 | -0.186
54 | O=C(O)CSc1nc2ccccc2o1 | 0.0704
55 | Cc1cnc(C(=O)Nc2ccccc2F)cn1 | -0.0388
56 | Cc1cccc(NC(=O)CSc2nsc(SCC(=O)Nc3cccc(C)c3)c2C#N)c1 | -0.0761
57 | CCOC(=O)C1CCN(C(=O)CSc2nnc(-c3ccco3)n2-c2ccccc2)CC1 | -0.369
58 | COc1cc(OC)c(C#N)c(S(=O)(=O)Cc2ccccc2)c1 | -0.17
59 | CCC(=O)N(C)/C=C1\Sc2ccccc2C1=O | -0.122
60 | CCCCCCCC(=O)NNC(=O)c1ccc([N+](=O)[O-])cc1 | -0.209
61 | CCOC(=O)c1sc(=S)n(-c2ccccc2)c1SC | -0.103
62 | CC1(C)CC(=O)C([N+](=O)[O-])=C(NCCCO)C1 | 0.365
63 | CCc1cc(C(=O)Cc2ccc(F)cc2)c(O)cc1O | -0.133
64 | Cc1ccnc2nc(C(=O)Nc3nccs3)nn12 | 0.755
65 | CCOc1ccc(C(=O)c2cc([N+](=O)[O-])ccc2Cl)cc1 | -0.0524
66 | CCS(=O)(=O)N1Cc2ccccc2CC1C(=O)Nc1nccs1 (configuration not stated) | 0.904
67 | Cc1ccc(S(=O)(=O)N2CCC(C(=O)N3Cc4ccccc4C3)CC2)cc1 | 0.318
68 | COCCNC(=O)c1cc2oc3ccccc3c2n1C | 0.0795
69 | COc1cccc(-c2csc(N3CCN(C(=S)Nc4ccccc4OC)CC3)n2)c1 | -0.186
70 | COCCNC(=O)Cn1cc2c(n1)CCC(C)C2 (configuration not stated) | -0.03
71 | O=C(CC1COc2ccccc2O1)NCCc1ccccc1 (configuration not stated) | -0.0967
72 | C=CCN1C(c2ccccc2)=CS/C1=C(/C#N)c1nnc(N2CCOCC2)n1-c1ccccc1 | -0.29
